# Data from patent US20250145722A1, “ANTI-GAL3 ANTIBODIES AND METHODS OF USE” (TrueBinding, Inc., priority 2020, published 2025).
# B1: F846TC.14A2: anti-Gal3 antibody (antibody)
# heavy: QIQLVQSGPELKKPGETVKISCKASGYTFTNYGMNWVKQAPGKGLKWMGWINTYTGEPTYAGDLKGRFAFSLETSASTAYLQINNLKNEDTATYFCVRYTMDYWGQGTSVTVSSASTKGPSVFPLAPCSRSTSESTAALGCLVKDYFPEPVTVSWNSGALTSGVHTFPAVLQSSGLYSLSSVVTVPSSSLGTKTYTCNVDHKPSNTKVDKRV[letters of human IgG4 Fc with S228P (EU numbers) omitted]
# light: QAVVTQESALTTSPGETVTLTCRSSTGAVTTSNYANWVQEKPDHLFTGLIGGINNRVPGVPARFSGSLIGDKAALTITGAQTEDEAIYFCALWYSNHWVFGGGTKLTVLRTVAAPSVFIFPPSDEQLKSGTASVVCLLNNFYPREAKVQWKVDNALQSGNSQESVTEQDSKDSTYSLSSTLTLSKADYEKHKVYACEVTHQGLSSPVTKSFNRGEC
# B2: F849C.8D10: anti-Gal3 antibody (antibody)
# heavy: QVQLQQTGAELVKPGASVKLSCKASGYTFTSYWINWVKQRPGQGLEWIGNIYPGSSSIYYSEKFKSKATLTVDTSSSTAYMQLSSLTSDDSAVYYCARWGYWGQGTTLTVSSASTKGPSVFPLAPCSRSTSESTAALGCLVKDYFPEPVTVSWNSGALTSGVHTFPAVLQSSGLYSLSSVVTVPSSSLGTKTYTCNVDHKPSNTKVDKRV[letters of human IgG4 Fc with S228P (EU numbers) omitted]
# light: DVLMTQTPLSLPVSLGDQASISCRSSQDIVHSSGNTYLEWYLQKPGQSLKLLIYKVSNRFSGVPDRFSASGSGTDFTLKISRVEAEDLGVYYCFQGSHVPPTFGSGTKLEIKRTVAAPSVFIFPPSDEQLKSGTASVVCLLNNFYPREAKVQWKVDNALQSGNSQESVTEQDSKDSTYSLSSTLTLSKADYEKHKVYACEVTHQGLSSPVTKSFNRGEC
# B3: F849C.8H3: anti-Gal3 antibody (antibody)
# heavy: QVTLKESGPGILQPSQTLSLTCSFSGFSLSTFGMGVGWIRQPSGKGLEWLAHIWWDDDKHYNPALKSRLTISKDTSKNQVFLRIANVDTADNATYYCARIDYGDYVGFAYWGQGTLVTVSAASTKGPSVFPLAPCSRSTSESTAALGCLVKDYFPEPVTVSWNSGALTSGVHTFPAVLQSSGLYSLSSVVTVPSSSLGTKTYTCNVDHKPSNTKVDKRV[letters of human IgG4 Fc with S228P (EU numbers) omitted]
# light: DIGMRQAAFSNPVTLGTSASISCRSSKSLLYSNGITYLYWFLQKPGQSPQLLIYQMSNLASGVPDRFSSSGSGTDFTLRISRVEADDVGVYYCAQNLELPWTFGGGTKLEIKRTVAAPSVFIFPPSDEQLKSGTASVVCLLNNFYPREAKVQWKVDNALQSGNSQESVTEQDSKDSTYSLSSTLTLSKADYEKHKVYACEVTHQGLSSPVTKSFNRGEC
# B4: F846C.1B2: anti-Gal3 antibody (antibody)
# heavy: QIQLVQSGPELKKPGETVKISCKASGYTFTNYGMNWVKQAPGKGLKWMGWINTYTGEPSYADDFKGRFAFSLETSASTAYLQINNLKNEDMATYFCARWGGYAGDYYAMDFWGQGTSVTVSSASTKGPSVFPLAPCSRSTSESTAALGCLVKDYFPEPVTVSWNSGALTSGVHTFPAVLQSSGLYSLSSVVTVPSSSLGTKTYTCNVDHKPSNTKVDKRV[letters of human IgG4 Fc with S228P (EU numbers) omitted]
# light: NIWLTQSPSSLAVSAGEMVTMTCKSSQSVLYSSNQKNYLAWYQQKPGQSPKLLIYWASTRESGVPDRFTGSGSGTDFSLTISSVQAEDLAVYYCHQYLSSLTFGAGTKLELKRTVAAPSVFIFPPSDEQLKSGTASVVCLLNNFYPREAKVQWKVDNALQSGNSQESVTEQDSKDSTYSLSSTLTLSKADYEKHKVYACEVTHQGLSSPVTKSFNRGEC
# B5: F846C.1H12: anti-Gal3 antibody (antibody)
# heavy: B4 heavy with Y32F, M91I, F111Y
# light: B4 light with W3M, L4M, E17Q, M18K, T22S, N34S, T69S, S78T, A86P
# B6: F846C.1F5: anti-Gal3 antibody (antibody)
# heavy: B4 heavy with A103D, F111Y
# light: B4 light with W3M, L4M, M18K, T22S, S78T, A86P
# B7: F846C.2H3: anti-Gal3 antibody (antibody)
# heavy: B4 heavy with A103D, F111Y
# light: B4 light with W3M, L4M, M18K, T22S, S78T, A86P
# B8: F847C.11B1: anti-Gal3 antibody (antibody)
# heavy: EVQLQQSGPELVKPGASVKISCKASGNTFTDHNMHWVKQSHGKSLEWIGYIYPYNGGTGYNQKFKSKATLTVDNSSSTVYMELRSLTSEDSAVYYCARGEYDYLAWFAYWGQGTLVTVSAASTKGPSVFPLAPCSRSTSESTAALGCLVKDYFPEPVTVSWNSGALTSGVHTFPAVLQSSGLYSLSSVVTVPSSSLGTKTYTCNVDHKPSNTKVDKRV[letters of human IgG4 Fc with S228P (EU numbers) omitted]
# light: EIVLTQSPASLSVTTGEKVTIRCITSIDIDDDMNWYQQKPGEPPKLLISEGNTLRPGVPSRFSSSGYGTDFVFTIENTLSEDVADYYCLQSDNKPLTFGAGTKLELKRTVAAPSVFIFPPSDEQLKSGTASVVCLLNNFYPREAKVQWKVDNALQSGNSQESVTEQDSKDSTYSLSSTLTLSKADYEKHKVYACEVTHQGLSSPVTKSFNRGEC
# B9: 849C.8D10: anti-Gal3 antibody (antibody)
# heavy: B2 heavy
# light: B2 light
# B10: 846T.14A2: anti-Gal3 antibody (antibody)
# heavy: B1 heavy
# light: B1 light
# What was measured:
# Human Gal3 peptides [1] = assay: Gal3 peptide library binding ELISA; conditions: antibodies 5 μg/mL
# Method: (§1) To identify the epitopes to which Gal3 antibodies with and without Gal3-APP695 blocking activity bound, a library of 20 amino acid peptides representing portions of Gal3, summarized in FIG. 17 (SEQ ID NOs: 3-26), was produced and the ability to bind Gal3 antibodies was evaluated by ELISA.
# (§2) Human Gal3 peptides (LifeTein, custom order) and human Gal3 proteins (R&D Systems, 8259-GA; TrueBinding, QCB200349) were diluted in PBS (Corning, 21-030-CM) to concentrations of at least 100 μg/mL (peptides) or 1 μg/mL (proteins), and added to the wells of several 96-well ELISA plates (Thermo Fisher, 44-2404-21). After incubating the plates at 4° C. overnight, the plates were washed three times with PBST (PBS with 0.05% Tween 20 [VWR, 0777]). The plates were then blocked for an hour with 2% BSA (EMD Millipore, 126609) in PBST at room temperature with gentle rocking. Thereafter, the 2% BSA in PBST was discarded and Gal3-binding antibodies (reformatted hIgG4 [S228P]) were diluted in 2% BSA in PBST to concentrations of 5 μg/mL and added to the wells. The plates were incubated for an hour at room temperature with gentle rocking and then washed three times with PBST. Afterwards, Peroxidase AffiniPure F(ab′)2 Fragment Goat Anti-Human IgG (H+L) polyclonal antibody (Jackson ImmunoResearch, 109-036-003), was diluted in 2% BSA in PBST (1:4000) and added to the wells. The plates were incubated for 1 hour at room temperature with gentle rocking and then washed three times with PBST. TMB substrate (Thermo Scientific, 34029) was then added to each well. The reaction was stopped with 1M HCl (JT Baker, 5620-02) and read using a plate reader (Molecular Devices) at absorbance of 450 nm.
# Human Gal3 peptides [2] = biological target: T1, Human Gal3 peptides (Homo sapiens, UniProt P17931); assay: Gal3 peptide library binding ELISA; conditions: antibodies 5 μg/mL
# T1 construct: purchased LifeTein custom order; host or cells: synthetic peptides
# Method: as §1, §2
# [3] = biological target: T2, Gal3-induced Aβ42 oligomers (Homo sapiens, UniProt P17931); assay: Disruption of Gal3-induced Aβ42 oligomers (dot blot, A11/6E10); format: biochemical; conditions: hGal3-65-250 isoform-induced Aβ-42 oligomers; within 1 hour; FIG. 63D
# T2 construct: The anti-Gal3 antibodies were incubated with hGal3-65-250 isoform-induced Aβ-42 oligomers; made in house
# T2 sequence (P17931 65-250): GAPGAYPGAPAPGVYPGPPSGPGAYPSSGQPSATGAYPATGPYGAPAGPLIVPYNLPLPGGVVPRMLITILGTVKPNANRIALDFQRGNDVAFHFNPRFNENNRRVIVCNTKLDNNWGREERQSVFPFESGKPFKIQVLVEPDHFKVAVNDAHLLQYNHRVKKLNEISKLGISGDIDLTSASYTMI
molecule,measurement,setting,value
B1,Binding to Peptide 8 (SEQ ID NO: 10) of Gal3,Human Gal3 peptides [1],bind
same,Binding to Peptide 1 (SEQ ID NO: 3) of Gal3,Human Gal3 peptides [2],bind and bound
same,Binding to Peptide 7 (SEQ ID NO: 9) of Gal3,Human Gal3 peptides [2],bind and bound
B2,Binding to Peptide 2 (SEQ ID NO: 4) of Gal3,Human Gal3 peptides [2],bind
same,Binding to Peptide 3 (SEQ ID NO: 5) of Gal3,Human Gal3 peptides [2],bind
B3,Binding to Peptide 17 (SEQ ID NO: 19) of Gal3,Human Gal3 peptides [1],bind
same,Binding to Peptide 2 (SEQ ID NO: 4) of Gal3,Human Gal3 peptides [2],bind
B4,Binding to Peptide 5 (SEQ ID NO: 7) of Gal3,Human Gal3 peptides [2],bind
same,Binding to Peptide 6 (SEQ ID NO: 8) of Gal3,Human Gal3 peptides [2],bind and bound
same,Binding to Peptide 7 (SEQ ID NO: 9) of Gal3,Human Gal3 peptides [2],bind and bound
B5,Binding to Peptide 17 (SEQ ID NO: 19) of Gal3,Human Gal3 peptides [1],bind
same,Binding to Peptide 5 (SEQ ID NO: 7) of Gal3,Human Gal3 peptides [2],bind
same,Binding to Peptide 6 (SEQ ID NO: 8) of Gal3,Human Gal3 peptides [2],bind and bound
B6,Binding to Peptide 17 (SEQ ID NO: 19) of Gal3,Human Gal3 peptides [1],bind
same,Binding to Peptide 6 (SEQ ID NO: 8) of Gal3,Human Gal3 peptides [2],bind and bound
B7,Binding to Peptide 6 (SEQ ID NO: 8) of Gal3,Human Gal3 peptides [2],bind and bound
B8,Binding to Peptide 17 (SEQ ID NO: 19) of Gal3,Human Gal3 peptides [1],bind
B9,inhibition of Aβ-42 oligomer formation,[3],significant inhibition
B10,inhibition of Aβ-42 oligomer formation,[3],significant inhibition

# Where a chain is given by its changes, count along the chain named. Names and notes keep the numbering of the source.
